# Assay results from ChEMBL document CHEMBL4888484, “Replenishing the malaria drug discovery pipeline: Screening and hit evaluation of the MMV Hit Generation Library 1 (HGL1) against asexual blood stage Plasmodium falciparum ,using a nano luciferase reporter read-out” (2022).
# Among all 150,000 compounds or so, about 540 (0.36%) showed an effect of 50% or more. The list shows a part of the results.
# Tested on: Plasmodium falciparum
# Test: Primary screen in NF54 nanoGlo assay, in single point, at 2uM, 72h; a lower Z score goes with more inhibition
# Assay type: functional, Erythrocyte
# Conditions: timepoint 72 hour
SMILES,% Inhibition [%],Z score
Cn1cc(S(=O)(=O)Oc2ccc(C(C)(C)C)cc2)cc1C(N)=O,-2,0.37
C[C@H]1C(=O)N(C)C[C@@H](COc2ccccc2)N1C(=O)C1CCOCC1,-7,0.87
O=C(O)c1csc(NC(=O)c2cccc([C@H]3CCOC3)c2)c1,-11,1.14
Cc1cc(N2CCN(Cc3cccc(C#N)c3)C[C@H](O)C2)nc(N)n1,21,-2.71
NC(=O)C(NC(=O)c1sc2sccc2c1Cl)C(N)=O,22,-3.02
O=S(=O)(Nc1ccc(F)cn1)c1ccc(Br)o1,21,-2.09
O=C(Cn1cnc2c(cnn2CCO)c1=O)N1CCN(c2ccccc2)CC1,-9,1.13
CN(Cc1cnccn1)C(=O)Nc1ccc2c(c1)CCCN2C,-16,2.21
CCCn1nccc1C(=O)N[C@H]1CCCn2ncnc21,4,-0.68
CC(C)(C)c1ncn(CC(=O)NCCC2CCCCC2)n1,-6,0.76
CN(C)c1noc(-c2cccc3[nH]c(CO)nc23)n1,-11,2.1
Cc1ccc(OC/C=C/Cn2ccnc2)c(C)c1,-6,0.69
CCCC[C@H](CC)CNC(=O)c1ccccc1OC,-5,0.6
Cn1cc(C(Nc2cccc(C#N)n2)[C@H]2C[C@H](O)C2)cn1 (stereo partly specified),-21,1.88
CC1(C)CN(C(=O)C2C3CCCC32)CC[S+]1[O-] (stereo unspecified),-14,1.42
COc1ccc(CN2CC[C@@H](CO)N(C)c3cccnc3C2)cc1,19,-2.21
Cn1ccnc1[C@H]1OCC[C@@H]1NC(=O)Nc1csc(-c2ccccn2)n1,-8,1.01
CN1CCC(NC(=O)c2cc(-c3ccccc3)nc3ncnn23)CC1,-4,0.47
Cc1cc(C(=O)Nc2sccc2C(=O)Nc2ccc(Cl)cc2)no1,-1,0.15
Oc1cccc(CNc2ccc(CN3CCC(O)CC3)cc2)c1,-13,1.98
CC(C)c1nc2cc(CCC(=O)NC3CCCCC3)ccc2[nH]1,-8,1.12
CCn1ccnc1CN1CCC2(CCC(=O)N(CCc3ccccc3)C2)CC1,-9,1.5

SMILES,% Inhibition [%],Z score
O=C1O[C@]2(CCCN(S(=O)(=O)c3cccnc3)C2)c2ccccc21,-6,0.89
FC(F)(F)CN1CC[C@H](c2nc(-c3cocn3)no2)C1,-4,0.7
C[C@H]1CN(C(=O)c2noc(-c3cccc(F)c3)n2)CCO1,-5,0.64
CCc1nnnn1Cc1nccn1C(F)F,-9,1.44
C[C@H]1C(=O)N(c2ccccc2)CCN1C(=O)c1ccoc1,-7,1.37
O=C(c1ccc2c(c1)OCO2)N1CC(N2C(=O)C3CC=CCC3C2=O)C1 (stereo unspecified),-12,1.32
Cc1nc(-c2ccccc2)sc1NC(=O)OC(C)(C)C,-5,0.54
CCN(C)C(=O)c1ccc(CN2C(=O)COc3ccc(C(=O)COc4ccc(F)cc4C)cc32)o1,2,-0.29
COc1ccc(CC(=O)Nc2ccc(-n3ccnc3C)nc2)cc1OC,-12,1.97
Cc1ccncc1C(=O)N1CCC2(CC1)NCCc1c2[nH]c2ccccc12,-5,0.67
Cc1ccc([C@H](CNc2ncccc2S(C)(=O)=O)N2CCCC2)o1,-31,3.61
Cc1cc(C)c(CNC(=O)c2c[nH]c3ncccc23)c(=O)[nH]1,31,-4.21
CCOC(=O)N1CCN(C(=O)Cc2sc(C)nc2-c2ccc(C)cc2)CC1,3,-0.3
O=C(NCCCn1ccnc1)c1cncc(Br)c1,-3,0.33
Cc1cnccc1NCCn1ccnc1-c1ccc2c(c1)OCCO2,-9,1.68
Cc1nccc(CNC(=O)c2ccc(-c3ccco3)[nH]c2=O)n1,-7,0.64
CCn1nncc1CNC(=O)Nc1ccc(C2CCC2)cc1,-4,0.57
COc1c(C)cnc(CN2CCCC[C@@H]2CCn2ccnc2)c1C,-7,1.28
COc1ccc(NCc2ccc(-c3ccc(F)cc3C)o2)cc1N1CCOC1=O,-13,1.36
C[C@@H](Cc1cccs1)N(C)S(=O)(=O)c1cccnc1,-3,0.29
Cc1nc(N2CCCN(CCCc3ccccc3)CC2)c2c(C)nn(C)c2n1,-6,0.99
CC(C)(C)OC(=O)CN1C[C@H](O)C(C)(C)C1,-18,1.77

SMILES,% Inhibition [%],Z score
CC(C)n1c(CCNC(=O)Cc2ccccc2Cl)nc2cccnc21,-8,0.93
CN1CCOc2ccc(NC(=O)Nc3ccn(CCC#N)n3)cc21,-13,1.67
Cc1c(CN2CCCc3cc(Cl)ccc32)cnn1C,23,-2.66
OC[C@@H]1[C@@H](Cc2ccnc(-c3cccnc3)n2)[C@H](NCc2ccc(F)c(F)c2)C[C@H]1O,-10,1.53
FC(F)(F)c1cccc(Nc2c3c(nc4ccc(Cl)cc24)CCCC3)c1,-7,0.96
Cc1c(C(=O)OCCn2cnc3c2c(=O)n(C)c(=O)n3C)ccc2cnc(C3CC3)n12,-3,0.33
Cc1ccncc1[C@H]1CCN(Cc2cn(C(C)(C)C)nn2)C1,-13,2.04
CC1CCCC(OCc2cccc(N)c2)C1 (stereo unspecified),-10,1.1
CN1CCCC(C(=O)N2CCN(C3CC3)CC2Cc2ccccc2)C1 (stereo unspecified),-7,1.09
CC[C@H](NC(=O)CC1CCCC1)c1nccs1,-7,0.93
O=C1C2C3CCC(C3)C2C(=O)N1c1ccc2c(c1)OCCO2 (stereo unspecified),-14,1.75
CN(CCn1ccc2ccccc21)Cc1nccn1C1CC1,-13,1.35
CN(C)S(=O)(=O)c1ccc2c(c1)ncn2CCC(=O)NCc1ccco1,-6,1.09
Cc1nc2cccnc2n1CCN1CCN(C(=O)Nc2cc(F)ccc2F)CC1,-4,0.53
C[C@@H](Cc1cncc2ccccc12)C(=O)NCCc1nc(C(=O)O)cs1,4,-0.76
CC1CCCCC1NC(=O)CN1CCN(Cc2cccc(Cl)c2)C1=O (stereo unspecified),34,-4.62
C[C@H]1CC(N)=NN1c1ccc(Cl)cn1,-7,1.29
COCc1noc(C[C@H]2CN(C(=O)Nc3ccc4[nH]ccc4c3)CCO2)n1,-8,1.6
Cc1cc(NC(=O)C(=O)N[C@@H](CC(C)C)CN(C)C)no1,5,-0.73
O=C(C1CC2CCC1C2)N1CCn2c(nnc2C(F)(F)F)C1 (stereo unspecified),2,-0.29
Cc1ccsc1C(=O)NCCc1cn2c(n1)CCCC2,-5,1.04
CN(C)c1cc(C(F)(F)F)cc(C#N)n1,-13,1.45

SMILES,% Inhibition [%],Z score
CCN1CCO[C@@H](CNCc2cc3ccccc3o2)C1,2,-0.31
COc1c(N)ncnc1N1CCC[C@H](C2CC2)C1,-6,1.12
CC(C)c1noc([C@H]2CCC(=O)N(C3CCCCCC3)C2)n1,6,-0.52
CC(C)c1cccc(Nc2nc3ccncc3n(C(C)C)c2=O)c1,91,-8.7
O=S(=O)(NC[C@H]1CCOC1)c1cnc(NCCCO)c(Cl)c1,4,-0.46
CN(C)C(=O)[C@H]1CC[C@@H](C(=O)N2CCC2(C)C)O1,6,-0.57
CC1CCN(C[C@H]2CCCCCN2C(=O)NCCc2ccccc2)CC1,44,-6.24
Cc1ccnn1CCC(=O)N1CC[C@@H]2OCc3cccc(c3)Oc3cccc(c3)CCC(=O)N(C)CC(=O)N[C@@H]2C1,6,-1.1
CCC(CC)(C(=O)NCCc1ccccn1)C(=O)OC(C)(C)C,0,0.03
c1ccc2nc(NCCCN3CCOCC3)cnc2c1,4,-0.5
CCOc1ncccc1NC(=O)c1ccsc1,-6,1.09
N#Cc1nccnc1NC1C2CCC1Cc1ccccc1C2 (stereo unspecified),-5,0.88
COc1ccccc1OCC[C@H]1CCN(C(=O)CC(C)C)C1,-11,2.19
N#Cc1ncn(CC(=O)Nc2ccccc2-c2ccccc2)c1C#N,-4,0.52
CC(C)c1noc([C@H](C)NS(=O)(=O)c2ccc3c(c2)OCCCO3)n1,-19,2
CO[C@@H](C)c1noc(CCC(=O)N2CCN3CCOc4cccc2c43)n1,1,-0.1
Cc1ccc(CNC(=O)Cn2c(C)cc(C)c2-c2nc(C(C)C)no2)cc1,3,-0.48
O=c1ccccn1S(=O)(=O)c1cc(Cl)ccc1Cl,-9,1.08
CC1(C)C[C@@H]2C[C@@](C)(CN2C(=O)c2cc(-n3cnnn3)[nH]n2)C1,-5,0.91
O=C(c1cn2cccnc2n1)N1CCc2sccc2C1,-16,2.49
O=C(CC1(C(=O)O)CCC1)N1CCCC[C@@H]1Cc1ccc(F)cc1,-18,1.49
CCCn1cc(NC(=O)c2sc(N(C)C)nc2C)cn1,-7,1.18
